# Data from the supplement of paper PMC8728848.
# The other results are listed elsewhere or left out.
# B1: Flo11 (Saccharomyces cerevisiae), Q1H8S8 (protein)
# chain: MGSSHHHHHHSSGLVPRGSHMFPTALVPRGSSEGTSCNSIVNGCPNLDFNWHMDQQNIMQYTLDVTSVSWVQDNTYQITIHVKGKENIDLKYLWSLKIIGVTGPKGTVQLYGYNENTYLIDNPTDFTATFEVYATQDVNSCQVWMPNFQIQFEYLQGSAAQYASSWQWGTTSFDLSTGCNNYDNQGHSQTDFPGFYWNIDCDNNCGGTKSS
# Tests used:
# Experiment in all cases: glycan array binding signal (z-score within array); higher = stronger binding
# Conditions in all cases: glycan notation: IUPAC condensed, linker removed
# Fuc(a1-2)Gal = target: Fuc(a1-2)Gal
# Procedure, shortened: (§1)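 Glycan array data came from 3228 arrays in the Consortium for Functional Glycomics database, and only arrays with an available protein sequence were kept. Glycan names were put into IUPAC-condensed notation, and columns mapping to the same glycan were averaged. The binding signal is a within-array Z-score, averaged across arrays of one protein sequence run at different concentrations or buffers and across linkers. A negative Z-score can be read as non-binding.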
# Fuc(a1-2)Gal(b1-3)GalNAc = target: Fuc(a1-2)Gal(b1-3)GalNAc
# Procedure, shortened: as §1
# [1] = target: Fuc(a1-2)Gal(b1-3)GalNAc(b1-3)Gal
# Procedure, shortened: as §1
# [2] = target: Fuc(a1-2)Gal(b1-3)GalNAc(b1-3)Gal(a1-4)Gal(b1-4)Glc
# Procedure, shortened: as §1
# [3] = target: Fuc(a1-2)Gal(b1-3)GalNAc(b1-4)[Neu5Ac(a2-3)]Gal(b1-4)Glc
# Procedure, shortened: as §1
# Fuc(a1-2)Gal(b1-3)GlcNAc = target: Fuc(a1-2)Gal(b1-3)GlcNAc
# Procedure, shortened: as §1
# [4] = target: Fuc(a1-2)Gal(b1-3)GlcNAc(b1-2)Man(a1-3)[Fuc(a1-2)Gal(b1-3)GlcNAc(b1-2)Man(a1-6)]Man(b1-4)GlcNAc(b1-4)GlcNAc
# Procedure, shortened: as §1
# [5] = target: Fuc(a1-2)Gal(b1-3)GlcNAc(b1-3)Gal(b1-4)Glc
# Procedure, shortened: as §1
# [6] = target: Fuc(a1-2)Gal(b1-3)GlcNAc(b1-3)[Gal(b1-4)[Fuc(a1-3)]GlcNAc(b1-6)]Gal(b1-4)Glc
# Procedure, shortened: as §1
# [7] = target: Fuc(a1-2)Gal(b1-3)[Fuc(a1-4)]GlcNAc
# Procedure, shortened: as §1
# [8] = target: Fuc(a1-2)Gal(b1-3)[Fuc(a1-4)]GlcNAc(b1-2)Man(a1-3)[Fuc(a1-2)Gal(b1-3)[Fuc(a1-4)]GlcNAc(b1-2)Man(a1-6)]Man(b1-4)GlcNAc(b1-4)GlcNAc
# Procedure, shortened: as §1
# Fuc(a1-2)Gal(b1-4)Glc = target: Fuc(a1-2)Gal(b1-4)Glc
# Procedure, shortened: as §1
# Fuc(a1-2)Gal(b1-4)Glc6S = target: Fuc(a1-2)Gal(b1-4)Glc6S
# Procedure, shortened: as §1
# Fuc(a1-2)Gal(b1-4)GlcNAc = target: Fuc(a1-2)Gal(b1-4)GlcNAc
# Procedure, shortened: as §1
# [9] = target: Fuc(a1-2)Gal(b1-4)GlcNAc(b1-2)Man(a1-3)[Fuc(a1-2)Gal(b1-4)GlcNAc(b1-2)Man(a1-6)]Man(b1-4)GlcNAc(b1-4)GlcNAc
# Procedure, shortened: as §1
# [10] = target: Fuc(a1-2)Gal(b1-4)GlcNAc(b1-3)Gal(b1-4)GlcNAc
# Procedure, shortened: as §1
# [11] = target: Fuc(a1-2)Gal(b1-4)GlcNAc(b1-3)Gal(b1-4)GlcNAc(b1-3)Gal(b1-4)GlcNAc
# Procedure, shortened: as §1
# [12] = target: Fuc(a1-2)Gal(b1-4)GlcNAc6S
# Procedure, shortened: as §1
# [13] = target: Fuc(a1-2)Gal(b1-4)[Fuc(a1-3)]GlcNAc
# Procedure, shortened: as §1
# [14] = target: Fuc(a1-2)Gal(b1-4)[Fuc(a1-3)]GlcNAc(b1-2)Man(a1-3)[Fuc(a1-2)Gal(b1-4)[Fuc(a1-3)]GlcNAc(b1-2)Man(a1-6)]Man(b1-4)GlcNAc(b1-4)GlcNAc
# Procedure, shortened: as §1
# [15] = target: Fuc(a1-2)Gal(b1-4)[Fuc(a1-3)]GlcNAc(b1-3)Gal(b1-4)[Fuc(a1-3)]GlcNAc
# Procedure, shortened: as §1
# [16] = target: Fuc(a1-2)Gal(b1-4)[Fuc(a1-3)]GlcNAc(b1-3)Gal(b1-4)[Fuc(a1-3)]GlcNAc(b1-3)Gal(b1-4)[Fuc(a1-3)]GlcNAc
# Procedure, shortened: as §1
# Fuc(a1-2)Gal6S(b1-4)Glc = target: Fuc(a1-2)Gal6S(b1-4)Glc
# Procedure, shortened: as §1
# [17] = target: Fuc(a1-2)Gal6S(b1-4)Glc6S
# Procedure, shortened: as §1
# [18] = target: Fuc(a1-2)Gal6S(b1-4)GlcNAc
# Procedure, shortened: as §1
# Fuc(a1-2)[Gal(a1-3)]Gal = target: Fuc(a1-2)[Gal(a1-3)]Gal
# Procedure, shortened: as §1
# [19] = target: Fuc(a1-2)[Gal(a1-3)]Gal(b1-3)GlcNAc
# Procedure, shortened: as §1
# [20] = target: Fuc(a1-2)[Gal(a1-3)]Gal(b1-3)GlcNAc(b1-2)Man(a1-3)[Fuc(a1-2)[Gal(a1-3)]Gal(b1-3)GlcNAc(b1-2)Man(a1-6)]Man(b1-4)GlcNAc(b1-4)GlcNAc
# Procedure, shortened: as §1
# [21] = target: Fuc(a1-2)[Gal(a1-3)]Gal(b1-4)Glc
# Procedure, shortened: as §1
# [22] = target: Fuc(a1-2)[Gal(a1-3)]Gal(b1-4)GlcNAc
# Procedure, shortened: as §1
# [23] = target: Fuc(a1-2)[Gal(a1-3)]Gal(b1-4)GlcNAc(b1-2)Man(a1-3)[Fuc(a1-2)[Gal(a1-3)]Gal(b1-4)GlcNAc(b1-2)Man(a1-6)]Man(b1-4)GlcNAc(b1-4)GlcNAc
# Procedure, shortened: as §1
# [24] = target: Fuc(a1-2)[Gal(a1-3)]Gal(b1-4)[Fuc(a1-3)]GlcNAc
# Procedure, shortened: as §1
# [25] = target: Fuc(a1-2)[Gal(a1-4)]Gal(b1-4)GlcNAc
# Procedure, shortened: as §1
# [26] = target: Fuc(a1-2)[GalNAc(a1-3)]Gal
# Procedure, shortened: as §1
# [27] = target: Fuc(a1-2)[GalNAc(a1-3)]Gal(b1-3)GlcNAc
# Procedure, shortened: as §1
# [28] = target: Fuc(a1-2)[GalNAc(a1-3)]Gal(b1-3)GlcNAc(b1-2)Man(a1-3)[Fuc(a1-2)[GalNAc(a1-3)]Gal(b1-3)GlcNAc(b1-2)Man(a1-6)]Man(b1-4)GlcNAc(b1-4)GlcNAc
# Procedure, shortened: as §1
# [29] = target: Fuc(a1-2)[GalNAc(a1-3)]Gal(b1-4)Glc
# Procedure, shortened: as §1
binder,measurement,setting,value
B1,glycan array binding signal (z-score),Fuc(a1-2)Gal,-0.507
same,glycan array binding signal (z-score),Fuc(a1-2)Gal(b1-3)GalNAc,0.413
same,glycan array binding signal (z-score),[1],-0.416
same,glycan array binding signal (z-score),[2],0.73
same,glycan array binding signal (z-score),[3],0.673
same,glycan array binding signal (z-score),Fuc(a1-2)Gal(b1-3)GlcNAc,-0.501
same,glycan array binding signal (z-score),[4],-0.499
same,glycan array binding signal (z-score),[5],-0.358
same,glycan array binding signal (z-score),[6],-0.319
same,glycan array binding signal (z-score),[7],-0.496
same,glycan array binding signal (z-score),[8],1.83
same,glycan array binding signal (z-score),Fuc(a1-2)Gal(b1-4)Glc,-0.504
same,glycan array binding signal (z-score),Fuc(a1-2)Gal(b1-4)Glc6S,-0.497
same,glycan array binding signal (z-score),Fuc(a1-2)Gal(b1-4)GlcNAc,-0.508
same,glycan array binding signal (z-score),[9],-0.486
same,glycan array binding signal (z-score),[10],-0.01
same,glycan array binding signal (z-score),[11],0.047
same,glycan array binding signal (z-score),[12],-0.486
same,glycan array binding signal (z-score),[13],-0.445
same,glycan array binding signal (z-score),[14],1.84
same,glycan array binding signal (z-score),[15],-0.498
same,glycan array binding signal (z-score),[16],-0.499
same,glycan array binding signal (z-score),Fuc(a1-2)Gal6S(b1-4)Glc,-0.497
same,glycan array binding signal (z-score),[17],-0.098
same,glycan array binding signal (z-score),[18],-0.501
same,glycan array binding signal (z-score),Fuc(a1-2)[Gal(a1-3)]Gal,-0.504
same,glycan array binding signal (z-score),[19],-0.506
same,glycan array binding signal (z-score),[20],-0.49
same,glycan array binding signal (z-score),[21],-0.505
same,glycan array binding signal (z-score),[22],-0.507
same,glycan array binding signal (z-score),[23],-0.504
same,glycan array binding signal (z-score),[24],0.644
same,glycan array binding signal (z-score),[25],-0.508
same,glycan array binding signal (z-score),[26],-0.49
same,glycan array binding signal (z-score),[27],-0.49
same,glycan array binding signal (z-score),[28],-0.389
same,glycan array binding signal (z-score),[29],-0.505
